The source of these data is article PMC6052247, “Structurally Diverse Polyketides From the Mangrove-Derived Fungus Diaporthe sp. SCSIO 41011 With Their Anti-influenza A Virus Activities” (Frontiers in Chemistry, 2018).

Assay [1] deals with A/Aichi/2/68 (H3N2). The experiment in a line: microbe, parasite or virus in culture. It counts as cell-based. The note with it: for IC50: read-out: IC50 A/Aichi/2/68 (H3N2).
The subject of assay [2] is A/FM-1/1/47 (H1N1). Nature of the assay: microbe, parasite or virus in culture. It counts as cell-based. The note with it: for IC50: read-out: IC50 A/FM-1/1/47 (H1N1).
Setting [3] is: Influenza A virus, H3N2, MDCK, 48 h.
The mark [4] stands for this setting: Influenza A virus, H1N1, MDCK, 48 h.

Where two headings read alike, the source gives them in different places.

On to 5-chloroisorotiorin, for which the IC50 in assay [1] is 10.1 ± 1.84 µM; in assay [2] it was 38 ± 15.1 µM.

As to `CCCCCCCc1cc(=O)c2c(CC(=O)OCC)cc(O)cc2o1` [Compound 15, pestalotiopsone B], the IC50 in assay [1] (setting [3]) was 6.76 ± 2.72 µM; in assay [2] (setting [4]), 4.82 ± 1.9 µM.

Turning to `CCCCCc1cc(=O)c2c(CC(=O)OC)cc(O)cc2o1` [Compound 14, pestalotiopsone F], the results for the IC50 in assay [1] (setting [3]) and in assay [2] (setting [4]) were 6.17 ± 1.46 µM and 6.74 ± 1.26 µM, respectively. The “inhibition effect on A/Aichi/2/68 (H3N2) (in words)” value in assay [1] (dose-dependent, Figure 4) is given as “obvious inhibition effect”. For the same compound, the “inhibition effect on A/FM-1/1/47 (H1N1) (in words)” value in assay [2] (dose-dependent, Figure 4) was “obvious inhibition effect”.
